From the supplement of paper PMC7826260
This is one part of the list. Cleavage of a single-stranded DNA pool by Rep nickase domains was read by sequencing for 1 h at 37 °C with 3 µM enzyme; only the middle of the 90-letter strands is printed. Numbers give uncut DNA relative to the enzyme-free pool, as log2; strong cutting gives strongly negative numbers. There is no active / inactive call. Shares of all reads are compared, so uncut sequences can rise above 0 when many others are cut.

Columns and labels:
Test in all cases: uncleaved DNA left, log2 of reads against the no-enzyme library (log2 ratio); higher = less cleavage (more negative = more Rep cleavage of the k-mer); sequences stand for … in CTCGTCCG…ACCGGAGA
[1] = tested on: T1, Rep nickase domain of Muscovy duck circovirus
T1 sequence (residues 1-111 of Rep, tag left off): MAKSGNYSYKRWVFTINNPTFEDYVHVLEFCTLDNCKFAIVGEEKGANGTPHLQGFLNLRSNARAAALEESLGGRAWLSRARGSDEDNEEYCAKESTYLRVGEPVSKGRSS
Procedure: (§1)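 A pool of 90-nt single-stranded DNAs with seven random bases just before the constant AC of the nick site (name = the seven bases) was cut by 3 µM recombinant His6-SUMO-tagged Rep nickase domain (300 nM DNA, 50 mM HEPES pH 8.0, 50 mM NaCl, 1 mM MnCl2, 1 h, 37 °C, three replicates). Uncut DNA was amplified and sequenced.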

[2] = tested on: T2, Rep nickase domain of banana bunchy top virus
T2 sequence (residues 1-94 of Rep, tag left off): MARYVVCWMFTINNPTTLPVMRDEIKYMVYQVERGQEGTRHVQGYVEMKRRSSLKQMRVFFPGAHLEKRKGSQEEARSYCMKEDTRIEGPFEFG
Procedure: as §1

[3] = tested on: T3, Rep nickase domain of cabbage leaf curl virus
T3 sequence (residues 1-116 of Rep, tag left off): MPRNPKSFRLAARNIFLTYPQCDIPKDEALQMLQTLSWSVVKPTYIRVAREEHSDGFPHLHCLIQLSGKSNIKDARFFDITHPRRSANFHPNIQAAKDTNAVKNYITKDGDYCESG
Procedure: as §1

[4] = tested on: T4, Rep nickase domain of chickpea chlorotic dwarf virus
T4 sequence (residues 1-124 of Rep, tag left off): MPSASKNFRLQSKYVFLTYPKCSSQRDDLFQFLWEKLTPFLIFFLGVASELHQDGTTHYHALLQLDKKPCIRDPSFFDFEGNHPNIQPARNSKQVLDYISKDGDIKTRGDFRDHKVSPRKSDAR
Procedure: as §1

[5] = tested on: T5, Rep nickase domain of faba bean necrotic yellows virus
T5 sequence (residues 1-98 of Rep, tag left off): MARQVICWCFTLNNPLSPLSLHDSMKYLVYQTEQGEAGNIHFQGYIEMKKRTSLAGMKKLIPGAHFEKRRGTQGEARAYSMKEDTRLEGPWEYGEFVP
Procedure: as §1

[6] = tested on: T6, Rep nickase domain of maize striate mosaic virus
T6 sequence (residues 1-117 of Rep, tag left off): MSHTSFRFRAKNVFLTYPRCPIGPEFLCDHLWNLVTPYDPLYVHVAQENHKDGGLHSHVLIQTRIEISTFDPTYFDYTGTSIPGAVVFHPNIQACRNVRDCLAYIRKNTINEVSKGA
Procedure: as §1

[7] = tested on: T7, Rep nickase domain of porcine circovirus 2
T7 sequence (residues 2-116 of Rep, tag left off): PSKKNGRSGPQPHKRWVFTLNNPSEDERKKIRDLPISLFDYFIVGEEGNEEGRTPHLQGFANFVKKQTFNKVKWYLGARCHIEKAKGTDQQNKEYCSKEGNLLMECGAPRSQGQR
Procedure: as §1

[8] = tested on: T8, Rep nickase domain of tomato yellow leaf curl virus
T8 sequence (residues 1-136 of Rep, tag left off): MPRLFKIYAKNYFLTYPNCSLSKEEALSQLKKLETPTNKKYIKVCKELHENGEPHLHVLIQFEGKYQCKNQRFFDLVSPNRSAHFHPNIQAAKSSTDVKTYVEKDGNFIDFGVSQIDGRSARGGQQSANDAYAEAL
Procedure: as §1

[9] = tested on: T9, Rep nickase domain of wheat dwarf virus
T9 sequence (residues 1-137 of Rep, tag left off): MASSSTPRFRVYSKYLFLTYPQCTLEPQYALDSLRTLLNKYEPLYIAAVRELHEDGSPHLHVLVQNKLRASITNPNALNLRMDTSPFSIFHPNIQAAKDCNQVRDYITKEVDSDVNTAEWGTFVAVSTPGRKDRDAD
Procedure: as §1

Sequence	uncleaved DNA left (log2) [1]	uncleaved DNA left (log2) [2]	uncleaved DNA left (log2) [3]	uncleaved DNA left (log2) [4]	uncleaved DNA left (log2) [5]	uncleaved DNA left (log2) [6]	uncleaved DNA left (log2) [7]	uncleaved DNA left (log2) [8]	uncleaved DNA left (log2) [9]
AGCGGGG	0.074	0.159	0.4	0.972	0.0151	1.62	0.216	0.101	0.111
AGCAGGT	0.0754	0.0624	0.301	0.695	-0.0324	1.1	-0.0847	-0.0744	-0.0297
GTATTAC	-1.51	0.0332	-0.388	0.239	-0.111	1.6	-2.98	0.169	-0.308
TCCCGGC	-0.114	-0.0417	0.177	0.195	-0.0719	-0.0358	-0.000763	-0.0968	-0.136
AAGAACT	0.0302	-0.26	-0.124	-2.35	-0.0474	0.495	-3.7	-0.0618	0.0299
ATCTAGC	0.15	0.000774	-0.421	-0.495	-0.0486	-1.08	0.14	0.114	0.099
AGACCGC	0.118	0.0551	0.604	0.937	0.145	1.2	0.159	0.162	0.209
ATCAGTG	0.0381	0.0726	-0.705	-0.673	-0.000697	-0.98	0.15	-0.00822	-0.052
CGAGTAG	-0.169	-0.024	-0.321	-0.158	-0.124	-0.598	0.0945	-0.0746	-0.088
TGGATCA	0.0597	0.13	0.586	1.12	-0.0193	1.55	0.0999	0.0946	0.136
CTGTTGA	0.0422	0.0135	-0.308	-0.369	0.073	-1.06	0.0358	0.0314	-0.113
GCCCACG	0.19	0.0905	-0.356	-0.0657	0.179	-0.535	0.165	0.0893	0.0187
GCACGAT	0.0665	0.00388	0.00787	-0.23	0.044	-0.0502	0.204	0.0863	-0.0686
CGATAGC	0.0294	0.0191	0.104	0.579	-0.0907	0.111	0.096	0.0583	0.0607
GGGTCAA	0.0971	0.155	0.966	2.04	-0.0598	2.26	0.175	0.0252	0.119
AATTTGC	-0.0796	0.0148	-0.805	-0.116	0.0336	-1.08	0.092	-0.000832	-0.134

Sequence	uncleaved DNA left (log2) [1]	uncleaved DNA left (log2) [2]	uncleaved DNA left (log2) [3]	uncleaved DNA left (log2) [4]	uncleaved DNA left (log2) [5]	uncleaved DNA left (log2) [6]	uncleaved DNA left (log2) [7]	uncleaved DNA left (log2) [8]	uncleaved DNA left (log2) [9]
TGCCTTG	-0.125	-0.0923	-0.159	-0.788	-0.0282	-0.552	0.0621	-0.0484	0.00407
CCTCGAT	4.67e-05	-0.0842	0.204	1.01	-0.0843	1.28	0.0414	-0.262	-0.177
TCGCTAT	0.057	-0.178	-0.0947	-0.776	-0.14	-0.554	-0.127	0.0193	-0.168
AAAGGTG	-0.0858	-0.0061	0.0713	0.858	-0.0809	0.75	0.166	-0.0905	0.00756
CTAAAGG	0.115	0.094	0.284	1.18	-0.0145	0.638	0.104	-0.0706	0.0652
GAGAAAT	0.0907	0.0948	0.681	1.68	0.00298	1.96	-2.57	0.117	0.148
CATGCTC	-0.0469	-0.00731	-0.4	-0.962	-0.0127	-1.15	-0.00878	0.0643	-0.102
AGTCTAG	0.0266	-0.0676	-0.593	-0.749	-0.00241	-1.23	0.107	-0.000331	-0.00849
GTAGTTT	0.151	0.11	0.377	0.863	0.0404	1.8	0.145	0.0815	0.166
GCCTTTT	-1.57	0.202	0.22	-0.981	0.157	0.347	-2.61	-0.000756	-0.0306
GACCGCC	-0.0274	-0.0951	0.0169	0.0143	-0.0322	-0.233	-0.0189	-0.0609	-0.0716
CTCAACG	0.0397	0.0313	-0.865	-0.378	0.123	-1.07	0.245	0.0747	0.0282
CACTCAC	-0.104	-0.0912	-0.35	-0.767	-0.147	-0.876	-0.822	-0.0666	-0.0909
TATGAGC	0.186	0.0655	-0.274	-0.452	0.0424	-1.02	0.233	0.0498	0.00549
ATTATTC	0.129	0.0714	-0.00838	-0.0315	0.0551	-0.879	0.0872	-0.0904	-0.0263
GACCGGT	-0.0536	-0.0106	0.141	0.58	-0.0848	0.688	-0.0468	-0.0937	-0.076
